Test results as given in the supplement of paper PMC10441789.
The other results are listed elsewhere or left out. Antibody binding of pooled human sera (four to six donors per pool; dilution not stated) to peptides of the Trypanosoma cruzi antigen TSSA on microarrays. Quantile-normalised fluorescence in arbitrary units, mean of duplicate arrays; higher = more binding. No active / inactive call. The uninfected pools are read here as the healthy donors of the same country. The strongest signals lie near the top of the scale (about 60,000).

system: pooled sera of chronic Chagas disease patients, Argentina; test: antibody binding signal (normalised fluorescence) (arbitrary fluorescence units); higher = stronger serum antibody binding to peptide
Protocol: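 Microarray of 15-residue peptides over residues 30-55 of Trypanosoma cruzi TSSAII, each with 1 to 10 substitutions at naturally variable positions, probed with one serum pool per country.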

Row | Sequence | antibody binding signal
1 | ENKTATGETPSQSGA | 902
2 | DNKTAAGGTPSQPGA | 1410
3 | DNKTAAGEAPSQPGA | 6840
4 | GKDNKTATGEAPSQS | 16000
5 | DNKPATGEAPSPSGA | 44400
6 | GKDNKPATGGTPSQS | 736
7 | KAAAGGTPSQSGASS | 183
8 | KEKKAATGGTPSQPG | 336
9 | TSSTPPSGKEKKAAT | 15300
10 | KDNKTATGETPSPPG | 746
11 | SSTPPSGKDNKAAAG | 33400
12 | KAATGEAPSQSGASS | 24000
13 | TDKKAATGEAPSQSG | 21400
14 | PSGTENKPAAGGAPS | 53300
15 | TDKKTAAGGAPSPPG | 1070
16 | SGKDNKAAAGGTPSQ | 545
17 | TISTPPSGTENKAAT | 46900
18 | EKKPAAGGTPSPPGA | 466
19 | GTDNKAAAGETPSQS | 177
20 | ISTPPSGKEKKAAAG | 15800

Row | Sequence | antibody binding signal
21 | PSGTENKTAAGGTPS | 49600
22 | KDKKTAAGEAPSPSG | 147
23 | GKENKAAAGEAPSPS | 13100
24 | PPSGKEKKAAAGGTP | 1830
25 | GTENKAAAGETPSPS | 37100
26 | KTAAGGAPSQSGASS | 199
27 | GKEKKAAAGEAPSPS | 6270
28 | TPPSGKDKKTATGGT | 5720
29 | KEKKPAAGETPSQSG | 176
30 | KENKTATGEAPSPSG | 14000
31 | KKPAAGGAPSPPGAS | 201
32 | PPSGTEKKAATGGAP | 26300
33 | STPPSGKDNKAATGG | 39100
34 | GKDKKPATGETPSQP | 25200
35 | GKEKKTAAGGAPSQS | 3330
36 | TPPSGKDNKAATGET | 5400
37 | KDNKPAAGGAPSPPG | 177
38 | KDKKTAAGGAPSQPG | 209
39 | TDNKTATGETPSQPG | 2640
40 | SGKDKKPATGEAPSP | 45000
